# Data reported in article PMC6212790.
# The other results are listed elsewhere or left out. At the low end of the ranking, values are background and their order means little.
# Molecular target: T1, GST-Rok (full length) (UniProt O34857)
# T1 sequence: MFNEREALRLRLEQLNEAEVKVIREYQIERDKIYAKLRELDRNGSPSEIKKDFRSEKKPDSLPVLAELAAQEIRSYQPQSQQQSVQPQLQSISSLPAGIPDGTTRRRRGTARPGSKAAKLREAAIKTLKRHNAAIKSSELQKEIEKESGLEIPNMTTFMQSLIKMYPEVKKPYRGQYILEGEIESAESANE
# Experiment: protein binding microarray;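 note: rank score from −0.5 (least bound) to 0.5 (best bound)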
# Conditions: Rok is a gene silencer of Bacillus subtilis; high values mean tight binding; most listed sequences are background and not binding sites; double strand, one strand shown
row,Sequence,binding signal [E-score]
1,ACGGACCA,-0.198
2,TGGAGCAA,-0.0852
3,TGTGTTAA,-0.0202
4,CGCACTAG,-0.115
5,GAGGAGCA,-0.351
6,ACACCGTG,-0.19
7,CAAAGGAG,-0.224
8,CCCGGCCA,-0.361
9,ACGCGATG,0.0909
10,TGAGTACA,0.193
11,GAGCTGCA,-0.0813
12,CCCCCCAC,-0.431
13,AGGGCCCC,-0.456
14,TGTCAGAA,0.0237
15,AGGCATTC,0.0492
16,TATGTAAA,0.328
17,AGGAGTAA,-0.0247
18,TACTGGCA,0.106
19,TATTACGA,0.296
20,ATTCATTC,0.173
21,CGCTTTGA,-0.038
22,ACAGCCGA,-0.173

row,Sequence,binding signal [E-score]
1,AGATGATC,-0.0541
2,CCTGCCCA,-0.326
3,CTCCGCAA,-0.0761
4,GATGTCCC,-0.307
5,CCCATGGA,-0.279
6,GGAGTGTA,0.0672
7,GGCGGTAC,-0.21
8,AAGGAAAG,-0.377
9,CACGCCGG,-0.456
10,ATGATAAC,0.234
11,AATAAGCA,0.121
12,GTCTGGTA,0.241
13,CATTCACG,-0.0781
14,CGCTTGCA,-0.102
15,AAGCGCTG,-0.209
16,ATTAATAC,0.353
17,CTGGATCA,0.141
18,TGGTCCAA,-0.0958
19,GTCCTTTA,-0.239
20,CACGGCCC,-0.351
21,ACGACTGA,0.008
22,AGCAGGTC,-0.218

row,Sequence,binding signal [E-score]
1,GATCGTGC,0.0393
2,CAAGACTG,-0.0696
3,GAGAATAC,0.18
4,GCGCCCCC,-0.375
5,GTCCGAAA,0.0729
6,GACTCAGC,-0.139
7,AGTTGGTG,0.0888
8,AAGCGCGT,-0.078
9,GATACACA,0.225
10,CTGCGCAG,0.0917
11,AGAATATG,0.258
12,AGTCAGGC,0.0406
13,CAGACCCA,-0.0858
14,CTCACGAC,-0.105
15,ATCTCACA,0.0771
16,ATATACGG,0.0553
17,ATAGATAA,0.297
18,GATCCTAC,0.25
19,TGCGTCAA,-0.114
20,ATTAAGTG,0.192
21,GACTCCAC,-0.255
22,CCCCCATA,-0.356

row,Sequence,binding signal [E-score]
1,CCCCACCG,-0.384
2,CGTTCGCC,-0.106
3,CGACAGGC,-0.235
4,ACAGGTTC,-0.168
5,AGGTTTGG,0.00259
6,CACGTAGC,0.0142
7,ATTTTTTG,0.127
8,CGAACGAA,-0.211
9,AGCCAATC,-0.0169
10,CATAGCTC,0.00283
11,CGACGCCA,-0.246
12,AACAGCCT,-0.0437
13,CTCGGGAA,-0.131
14,AGCACCGC,-0.132
15,CTACCCAC,0.129
16,ATGAATAC,0.18
17,CCTACCCC,-0.268
18,AAGTACCC,0.0392
19,ATTGCGAC,0.129
20,TTATATAA,0.399
